Test results reported in PubChem BioAssay AID493208 (National Center for Advancing Translational Sciences (NCATS), 2011).
Screen size: about 44,000 compounds; about 340 (0.77%) were called active. Roughly 5% stayed inconclusive and do not appear here. Calls follow the shape of the dose curve; as a rule, active = well fitted inhibition curve with a large enough effect; inconclusive = small, poorly fitted or top-dose-only effect; inactive = flat fitted curve, though single readings scatter. The list shows a part of the results.

assay: Acumen qHTS Assay for Inhibitors of the mTORC1 Signaling Pathway in MEF (Tsc2-/-, p53-/-) Cells: Sytravon; settings: phospho-rpS6 immunofluorescence/PI, 24 h; series mostly up to 38.3 µM; activity change, negative = inhibition: at the top concentration;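 also: plate controls were DMSO for no effect and rapamycin for full effect; nearly all actives have a fitted effect of over 50% in size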
How it was run: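 Plate MEFs (Tsc2-/-, p53-/-, empty vector) in DMEM/10% FBS; after 24 h add compound, incubate 24 h at 37 degree Celsius; fix in PFA/TX-100, block, stain phospho-rpS6 and 10 uM PI; scan at 488 nm; report % positive cells.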

Activity change, negative = inhibition, inactive:
CCOc1ccc(NC(=O)CCc2nc3cccnc3n2Cc2ccc(OC)cc2)cc1 -5.14%
Cc1ccc(CS(=O)Cc2ccc(C(=O)NCc3ccccc3Cl)o2)cc1 (stereo unspecified) -12.5%
Nc1nnc(SCC(=O)Nc2cccc(F)c2)s1 -29.4%
Clc1ccc(Nc2nc(-c3ccccc3)c3ccccc3n2)c(Cl)c1 7.74%
O=S(=O)(c1cc(Br)c(Br)s1)N1CCN(c2ccccc2)CC1 3.84%
COc1ccccc1C(=O)Nc1cccc(OCc2cc(=O)n3c(C)csc3n2)c1 -28.8%
Cc1ccc(S(=O)(=O)c2nnn3c2nc(NCc2ccccc2)c2sccc23)cc1 5.4%
CC(C)c1ccc(NC(=O)C2CCN(S(=O)(=O)c3ccc(Br)s3)CC2)cc1 -0.78%
COc1cccc(NC(=O)CCSc2nc(-c3ccco3)cc(C(F)(F)F)n2)c1 -20.2%
COc1ccc(-c2noc(N3CCN(c4ccc(Cl)cc4)CC3)n2)cc1OC 2.16%
CCc1nn2c(=O)cc(COC(=O)c3cccc(NC(=O)COc4ccccc4)c3)nc2s1 6.87%
CCOc1ccccc1NC(=O)C(=O)c1cc(C)n(-c2cccc(C)c2C)c1C -12.8%
CC(C)Cc1nn2c(=O)cc(COC(=O)c3ccccc3NC(=O)c3cccs3)nc2s1 0%
COc1ccccc1NC(=O)C1=C(C)Nc2nc(SCc3ccccc3F)nn2C1c1ccncc1 (stereo unspecified) -5.36%
Cc1cccc(NC(=O)C2CCN(S(=O)(=O)c3ccc4[nH]c5c(c4c3)CCCCC5)CC2)c1 -1.61%
Cc1cc(C)cc(NC(=O)Cn2cc(C(=O)c3ccncc3)c(=O)c3cc(C)c(C)cc32)c1 -6.42%
CCc1cccc(C)c1NC(=O)C1CCN(c2nnc(C)c3c(C)n(-c4ccccc4)nc23)CC1 0%
COc1ccc(CNC(=O)C2CCN(S(=O)(=O)c3ccc4nc5c(c(C(=O)O)c4c3)CCCC5)CC2)cc1 -1.39%
CCCCCn1c(=O)[nH]c2cc(C(=O)N3CCN(c4cccc(Cl)c4)CC3)ccc2c1=O -14.9%
CN(c1ccccc1)S(=O)(=O)c1nnc(NC(=O)c2ccco2)s1 -4.75%
Cc1ccccc1NC(=O)c1cc2sccc2n1Cc1ccc(F)cc1 -1.52%
COc1ccc(OC)c(CNC(=O)c2cc(S(=O)(=O)N3CCC(C)CC3)cn2C)c1 -2.3%
COc1cc2oc(=O)c(CC(=O)NCCc3ccccc3)c(C)c2cc1Cl 0.524%
CCOC(=O)CCn1c(=O)c2cccn2c2cccnc21 -2.27%
CSc1nn(Cc2ccccc2C)c(NC(C)=O)c1S(=O)(=O)c1ccc(C)cc1 -3.6%
COCCN1Cc2cccc(C(=O)Nc3ccc(C(=O)OC)cc3)c2C1=O 0.764%
Cc1cc2cc(CCNS(=O)(=O)c3ccc(Br)cc3)c(=O)[nH]c2cc1C 2.65%
Cc1ccc(NC(=O)c2cc(S(=O)(=O)N3CCC(C)CC3)cn2C)cc1Cl -2.7%
COc1ccccc1C(=O)Nc1ccc2nc(SCC(=O)N3CCCC3)sc2c1 -0.265%
Cc1ccc2nc(-c3ccsc3)c(Nc3ccc(C(C)C)cc3)n2c1 0.342%
COCCNC(=O)CCCn1c(SCC(=O)c2ccc(F)cc2)nc2c(sc3ccccc32)c1=O 1.95%
Cc1ccc(NC(=O)/C(C#N)=C\c2ccc(-c3ccc(Cl)cc3)o2)c(C)c1 6.47%
CCc1ccc(NC(=O)C(=O)NCCc2csc(-c3cccc(F)c3)n2)cc1 -9.06%
Cc1ccc(C)c(Nc2nnc(-c3ccc(C)c(S(=O)(=O)N4CCN(C)CC4)c3)c3ccccc23)c1 -9.77%
CCOc1ccc(NC(=O)CSc2oc(-c3cccs3)nc2S(=O)(=O)c2ccc(C)cc2)cc1 0%
CCn1nc(C)c2c(-c3ccccc3)cc(=O)n(C(C)C(=O)Nc3cccc(F)c3)c21 (stereo unspecified) -3.69%
Cc1ccc(C2=CC(c3ccccc3C)n3c(nc4ccccc43)N2)cc1 (stereo unspecified) -7.02%
Cc1ccn2c(Nc3ccccc3C)c(-c3ccc(N4CCOCC4)cc3)nc2c1 -0.974%
O=C(COc1ccc(Cl)cc1)NCC(c1ccco1)S(=O)(=O)c1ccccc1 (stereo unspecified) -2.45%
COc1ccccc1NC(=O)c1sc2nc3c(c(C(F)(F)F)c2c1N)CN(C(C)=O)CC3 -13.1%
Cc1ccccc1CCNC(=O)c1ccc(NC(=O)N2CC(C)Sc3ccccc32)cc1 (stereo unspecified) -9.17%
Cc1nn(-c2ccc(N3CCOCC3)nn2)c(C)c1CCC(=O)NCc1ccccc1 -12.1%
COc1ccc(N2CCN(C(=O)C3CCN(Cc4nc(-c5ccc(Cl)cc5)oc4C)CC3)CC2)cc1 -11.2%
CN(C)CCNC(=O)CN1N=C(c2ccccc2)CCC1=O -23.1%
C=C(C)Cn1c(=O)c2c(nc3n2CCN3c2cc(C)cc(C)c2)n(C)c1=O 3.95%
COc1cc(C2C(=O)N(C3CCCCCC3)CC(=O)N2Cc2ccccc2)ccc1OC(C)C (stereo unspecified) 3.33%
COC(=O)c1ccc(NC(=O)CN(Cc2ccccc2)S(=O)(=O)c2ccc(C)cc2)cc1 1.31%
COc1ccc(CNc2nc(-c3ccc(OC)cc3)cc(C(F)(F)F)n2)cc1 -2.7%
CCCC(=O)N1CCc2cc(OC)c(OC)cc2C1COc1ccc2c(C)cc(=O)oc2c1 (stereo unspecified) -10.7%
COc1ccc2c(c1)CC(C(=O)NCCN1CCN(c3ccccc3F)CC1)CO2 (stereo unspecified) 1.37%
CCOc1ccc(NC(=O)Cn2cc(C(=O)c3ccc(CC)cc3)c(=O)c3cc4c(cc32)OCO4)cc1 -0.945%
Cc1ccc(Cl)cc1N1CCN(C(=O)c2cnn(C(C)(C)C)c2C2CCN(C(=O)OC(C)(C)C)CC2)CC1 -3.76%
CCCSc1ncc(Cl)c(C(=O)Nc2ccc(S(=O)(=O)N3CCC(C)CC3)cc2)n1 -6.84%
CCC(Sc1ncc(S(=O)(=O)c2ccc(C)cc2)c(=O)[nH]1)C(=O)Nc1cc(C)ccc1C (stereo unspecified) -4.27%
CCc1ccc(NC(=O)CN2CCN(C3CCCCC3)C(=O)C2=O)cc1 0%
O=C(Nc1c(C(=O)c2ccc(Cl)cc2)oc2ccccc12)c1cc(=O)c2ccccc2o1 4.08%
CCN(C(=O)CSc1nc2ccccc2n1Cc1ccc(C(=O)OC)cc1)c1ccccc1 0%
CCc1nc2ccc(C(=O)NCc3ccc(N(C)C)cc3)cc2nc1CC -0.296%
Cc1ccc2oc(=O)c(S(=O)(=O)c3ccc(F)cc3)cc2c1 -3.02%
COc1ccc(NC(=O)c2ccco2)cc1NC(=O)c1ccc(C)c(C)c1 -12%
COc1ccc(CCN2C(=O)NC(NC(=O)c3ccccc3OC)(C(F)(F)F)C2=O)cc1OC (stereo unspecified) 1.29%
